From PubChem BioAssay AID248 (DTP/NCI, 2004) come the findings set out here.

The assay concerns L1210 leukemia ip in BDF1 mice, survival T/C. Description: NCI In Vivo Anticancer Drug Screen. Data for tumor model L1210 Leukemia (intraperitoneal) in B6D2F1 (BDF1) mice. Particulars: endpoint: mean survival time, higher = longer survival.

Inconclusive results and toxic doses are left out. A number of entries come with more than one value. This list holds those alone. There may be further records. Values given together are repeats in other runs, samples, wells, individuals or studies.

Consider `Nc1nc(=S)c2[nH]cnc2[nH]1`, for which the T/C (dose: 1.75 mg/kg/injection, schedule: Q07DX003 (ip), vehicle: saline) is 110 % of control and 152 % of control; the T/C (dose: 4.0 mg/kg/injection, schedule: Q01DX Z (oral), vehicle: saline) was 101 % of control and 152 % of control. Regarding `O=C1c2ccccc2-c2ccc(N3C(=O)c4ccccc4C3=O)cc21`, under “dose: 25.0 mg/kg/injection, schedule: Q01DX001 (ip), vehicle: saline with Tween-80”, the T/C was 87 % of control and 163 % of control. As to `CS(=O)(=O)OCC(=O)NCCNC(=O)COS(C)(=O)=O`, the T/C is 118 % of control and 155 % of control (dose: 200.0 mg/kg/injection, schedule: Q01DX015 (ip), vehicle: saline); 105 % of control and 160 % of control (dose: 400.0 mg/kg/injection, schedule: Q01DX009 (ip), vehicle: saline). In the case of `O=c1[nH]c(-c2ccccc2N=NN2CCCCC2)nc2ccccc12`, the T/C (dose: 100.0 mg/kg/injection, schedule: Q04DX002 (ip), vehicle: saline with Tween-80) was 95 % of control and 163 % of control.

In the case of `CC(=O)OCC1OC(n2ncc(=O)[nH]c2=O)C(OC(C)=O)C1OC(C)=O` (stereo not given), the T/C (dose: 125.0 mg/kg/injection, schedule: Q01DX Z (im), vehicle: carboxymethylcellulose (CMC)) was 108 % of control and 153 % of control; the T/C (dose: 250.0 mg/kg/injection, schedule: Q01DX Z (oral), vehicle: carboxymethylcellulose (CMC)) is 96 % of control and 157 % of control. Consider `O=C1CN(CO)C(=O)CN1CO`, for which the T/C (dose: 100.0 mg/kg/injection, schedule: Q01DX009 (ip), vehicle: saline) is 97 % of control and 170 % of control. Consider `COC(=O)c1[nH]c(=O)[nH]c(=O)c1F`, for which the T/C (dose: 11.0 mg/kg/injection, schedule: Q01DX Z (ip), vehicle: carboxymethylcellulose (CMC)) was 110 % of control and 172 % of control.
